Measurements published in paper PMC11642874 (bioRxiv, 2024).

Target: the molecule itself
Test: cryo-EM structure

B1: Human mitochondrial RNA polymerase (POLRMT) Δ42 (enzyme, UniProt O00411 43-1230, looked up)
chain: SASPQEQDQDRRKDWGHVELLEVLQARVRQLQAESVSEVVVNRVDVARLPECGSGDGSLQPPRKVQMGAKDATPVPCGRWAKILEKDKRTQQMRMQRLKAKLQMPFQSGEFKALTRRLQVEPRLLSKQMAGCLEDCTRQAPESPWEEQLARLLQEAPGKLSLDVEQAPSGQHSQAQLSGQQQRLLAFFKCCLLTDQLPLAHHLLVVHHGQRQKRKLLTLDMYNAVMLGWARQGAFKELVYVLFMVKDAGLTPDLLSYAAALQCMGRQDQDAGTIERCLEQMSQEGLKLQALFTAVLLSEEDRATVLKAVHKVKPTFSLPPQLPPPVNTSKLLRDVYAKDGRVSYPKLHLPLKTLQCLFEKQLHMELASRVCVVSVEKPTLPSKEVKHARKTLKTLRDQWEKALCRALRETKNRLEREVYEGRFSLYPFLCLLDEREVVRMLLQVLQALPAQGESFTTLARELSARTFSRHVVQRQRVSGQVQALQNHYRKYLCLLASDAEVPEPCLPRQYWEELGAPEALREQPWPLPVQMELGKLLAEMLVQATQMPCSLDKPHRSSRLVPVLYHVYSFRNVQQIGILKPHPAYVQLLEKAAEPTLTFEAVDVPMLCPPLPWTSPHSGAFLLSPTKLMRTVEGATQHQELLETCPPTALHGALDALTQLGNCAWRVNGRVLDLVLQLFQAKGCPQLGVPAPPSEAPQPPEAHLPHSAAPARKAELRRELAHCQKVAREMHSLRAEALYRLSLAQHLRDRVFWLPHNMDFRGRTYPCPPHFNHLGSDVARALLEFAQGRPLGPHGLDWLKIHLVNLTGLKKREPLRKRLAFAEEVMDDILDSADQPLTGRKWWMGAEEPWQTLACCMEVANAVRASDPAAYVSHLPVHQDGSCNGLQHYAALGRDSVGAASVNLEPSDVPQDVYSGVAAQVEVFRRQDAQRGMRVAQVLEGFITRKVVKQTVMTVVYGVTRYGGRLQIEKRLRELSDFPQEFVWEASHYLVRQVFKSLQEMFSGTRAIQHWLTESARLISHMGSVVEWVTPLGVPVIQPYRLDSKVKQIGGGIQSITYTHNGDISRKPNTRKQKNGFPPNFIHSLDSSHMMLTALHCYRKGLTFVSVHDCYWTHAADVSVMNQVCREQFVRLHSEPILQDLSRFLVKRFCSEPQKILEASQLKETLQAVPKPGAFDLEQVKRSTYFFS
  stoichiometry N: 2
